# Measurements: PubChem BioAssay AID504832 (National Center for Advancing Translational Sciences (NCATS), 2011)
# The whole screen tested about 310,000 compounds, of which about 18,000 (5.8%) were called active. The shares of active, inactive and inconclusive entries below differ from those in the screen. Calls come from the whole dose curve; as a rule, active = well fitted inhibition curve with a large enough effect; inconclusive = small, poorly fitted or top-dose-only effect, or another doubt; inactive = no such curve, though single readings can be large or run the other way. Potencies of inconclusive entries are left out as doubtful fits.
# Assay: Primary qHTS for delayed death inhibitors of the malarial parasite plastid, 48 hour incubation
# Conditions: P. falciparum luciferase growth in erythrocytes; series mostly up to 28.7 µM; activity change, negative = inhibition: at the top concentration
# Summary of the method: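 Growth was read as firefly luciferase luminescence after a 48 h, 37 C, 5% CO2 exposure of compounds to reporter-bearing P. falciparum cultures (0.1% parasitemia, 2% hematocrit final) in Albumax-supplemented RPMI 1640.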
# % is set by controls: 0 for no effect and ±100 for the full control effect; potency is the fitted concentration of half-maximal effect; tags give direction and shape of the fitted curve.
SMILES,Potency,"activity change, negative = inhibition"
CC(C)(C)OC(=O)N1CCC(CC2CC(c3cccc(Br)c3)=NO2)(C(=O)NCC2CCCCC2)CC1 (configuration not stated),"inconclusive [inhibitor, full curve, poor fit]",–
O=C(NCc1ccco1)c1ccccc1-c1ccc(C(F)(F)F)cc1,"inconclusive [inhibitor, full curve, poor fit]",–
Cc1cccc(CC2S/C(=N/N=C/c3ccco3)N(c3ccccc3)C2=O)c1 (configuration not stated),"inconclusive [inhibitor, single point]",–
CCOc1ccc(C(=O)OCC(=O)N2CC(C)OC(C)C2)cc1OCC (configuration not stated),–,inactive: -8.42%
COc1ccc(-c2cc(C(F)(F)F)nc(SCC(=O)NCc3ccco3)n2)cc1OC,"inconclusive [inhibitor, single point]",–
COc1ccc(CCNC(=O)CN(C)S(=O)(=O)c2ccc(OC)cc2)cc1,–,inactive: -0.114%
COc1cc(Nc2cccc[n+]2C)cc(OC)c1OC,–,inactive: 2.91%
Cc1ccc(S(=O)(=O)NCC(=O)NCC(=O)OCc2c(F)cccc2Cl)cc1,"inconclusive [inhibitor, single point]",–
Clc1ccc(Oc2nc(N3CCOCC3)nc(N3CCOCC3)n2)cc1,–,inactive: 4.39%
Cc1ccc(NC2=NC3(CCCC3)N=C(N)N2)c(C)c1,"inconclusive [inhibitor, partial curve, poor fit]",–
O=S(=O)(c1ccc(Br)cc1)c1cnc2ccccc2n1,"inconclusive [inhibitor, partial curve]",–
O=C1CC(c2ccccc2)CC(=O)C1CS(=O)(=O)c1ccccc1 (configuration not stated),–,inactive: -1.18%
CC1CCC(NC(=O)COC(=O)c2cccnc2Cl)CC1 (configuration not stated),"inconclusive [inhibitor, partial curve, poor fit]",–
C#CCNC(=O)C1=C[C@H](c2ccc3c(c2)OCO3)[C@@H](CCCO)[C@H](OCC)O1,"inconclusive [inhibitor, full curve, poor fit]",–
CC(C)Oc1ccc(S(=O)(=O)N2CCCCC2)cc1NC(=O)C1CCCC1,"inconclusive [inhibitor, single point]",–
CCc1nc2c(sc3nc4c(cc32)COC(C)(C)C4)c(=O)n1Cc1ccccc1,"inconclusive [inhibitor, partial curve, poor fit]",–
CS(=O)(=O)N1CC2CCCN2c2cc(C(F)(F)F)ccc21 (configuration not stated),"inconclusive [inhibitor, full curve, poor fit]",–
CCN(CC)CC(=O)Nc1ccc(-c2ccc(NC(=O)CN(CC)CC)c(OC)c2)cc1OC,"inconclusive [inhibitor, partial curve]",–
O=C(C[n+]1cccc(CNC(=O)c2ccc(OC(F)F)cc2)c1)c1ccccc1,–,inactive: -6.43%
O=C(Nc1cccc(S(=O)(=O)N2CCCCCC2)c1)C1CCN(C(=O)c2ccc(Cl)cc2)CC1,"inconclusive [inhibitor, partial curve, poor fit]",–
CCC(=O)c1ccc(OCC(=O)Nc2ccc(N3CCOCC3)cc2N2CCOCC2)cc1,"inconclusive [inhibitor, partial curve, poor fit]",–

SMILES,Potency,"activity change, negative = inhibition"
COc1ccccc1N1CCN(Cc2ccco2)CC1,active: 2.33 µM,–
Cc1cnn(-c2nc(-c3ccccc3)cc(-c3ccccc3)n2)c1,"inconclusive [inhibitor, single point]",–
CCOC(=O)CCSc1nc(C(C)(C)C)cc(C(F)(F)F)c1C#N,"inconclusive [inhibitor, single point]",–
COc1ccc(CN(C)C(=O)c2cc(S(=O)(=O)Nc3ccccc3F)ccc2C)c(OC)c1,–,inactive: 7.64%
CCOC(=O)Cc1csc(NC(=O)Nc2ccc(C)cc2)n1,–,inactive: 2.11%
COc1ccc(N2CCN(CCC(=O)c3ccc4ccccc4c3)CC2)cc1,–,inactive: -6.41%
CCCCN(CC)Cc1ccc(CNC(=O)Nc2ccc(Cl)cc2)o1,"inconclusive [inhibitor, partial curve]",–
Cc1nc(-c2ccncc2)nc(NCCNc2ccc(C(F)(F)F)cn2)c1Cl,active: 3.7 µM,–
CC(=O)Nc1ccc(OCC(O)CN2CCN(c3cccc(Cl)c3)CC2)cc1 (configuration not stated),"inconclusive [inhibitor, partial curve, poor fit]",–
Cc1ccc2c(c1)CCCN2C(=O)CSc1ccccc1,–,inactive: 5.04%
CC(=O)OC1CCC2(C)C(COc3ccc4ccc(=O)oc4c3)C(C)(O)CCC2C1(C)C (configuration not stated),"inconclusive [inhibitor, single point]",–
CCCCCOC(=O)C1=C(C)N(C)C(=O)NC1c1cc(Br)c(O)c(OC)c1 (configuration not stated),"inconclusive [inhibitor, single point]",–
COc1ccc(-c2nc(-c3ccccc3)c(-c3cccs3)[nH]2)cc1OC,"inconclusive [inhibitor, single point]",–
COc1ccc(Cl)cc1NC(=O)CSc1nnc(C2CC2)n1C,–,inactive: -0.821%
CCOC(=O)c1ccc(NC(=O)CSc2nnc(Cc3cccs3)n2C)cc1,"inconclusive [inhibitor, single point]",–
O=C(O)c1ccc(N=Nc2c(O)[nH]c3ccc(Br)cc23)cc1,"inconclusive [inhibitor, full curve, poor fit]",–
Cc1ccc(-c2cn3cccnc3n2)cc1NC(=O)c1c(-c2ccccc2Cl)noc1C,"inconclusive [inhibitor, partial curve, poor fit]",–
CCOc1ccc2nc(N/C(N)=N/C(=S)Nc3cccc(C)c3)nc(C)c2c1,"inconclusive [inhibitor, partial curve, poor fit]",–
COc1ccc([C@@]2(O)c3c(ccc(CC=C(C)C)c3O)NC(=O)[C@@H]2OC)cc1,"inconclusive [inhibitor, partial curve, poor fit]",–
COc1cc(/C=C/C(=O)NC(C)(C)C)ccc1OCc1ccccc1,"inconclusive [inhibitor, partial curve, poor fit]",–
CC(C)C(=O)NCCSc1c[nH]c2ccccc12,–,inactive: 2.15%
